# Measured values as given in PubChem BioAssay (Tox21).
# “And” between values parts separate entries of the source, which are not always exact repeats. Equal values may be shown once. This list was built around the results that the source calls inconclusive (neither active nor inactive); the mix of calls is not that of the screen. For some assays here: Potencies of inconclusive entries are doubtful fits and often do not repeat. The source made the active and inactive calls. Unless noted, calls follow the shape of the dose curve; as a rule, active = well fitted curve in the direction sought with a large enough effect in the repeat runs; inconclusive = weak or mixed curves; inactive = no such curve, though single readings can be large; an effect the other way counts as inactive or inconclusive.
# Assays:
# [1] = qHTS assay to identify small molecule antagonists of the estrogen receptor alpha (ER-alpha) signaling pathway using the BG1 cell line (AID 743080; calls by dose curve;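 also: BG1 cells stimulated with 17beta-estradiol alongside compound; nearly all actives have a fitted effect of over 25% in size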; also: potency is read from the fitted curve at half-maximal effect; as to activity change, negative = inhibition: % is scaled to controls: 0 for no effect and ±100 for the full control effect); settings: BG1Luc4E2 ERE-luciferase antagonist mode, luminescence; activity change, negative = inhibition: at 70.3 µM (top of the series) unless noted
# In short: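 Luminescence from a 4×ERE-luciferase reporter in BG1-Luc-4E2 cells served as read-out. Cells, pre-cultured 5 days in stripped-serum phenol-red-free medium, were exposed to compound with 17beta-estradiol co-stimulation for 21.5 h at 37 C.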
# [2] = qHTS assay to identify small molecule antagonists of the estrogen receptor alpha (ER-alpha) signaling pathway using the BG1 cell line - cell viability counter screen (AID 743081); settings: BG1Luc4E2 viability, CellTiter-Fluor, 22 h; activity change, negative = cytotoxicity: at 70.3 µM (top of the series) unless noted;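 also: compound given together with 17beta-estradiol as the ER stimulus; nearly all actives have a fitted effect of over 45% in size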; also: potency is read from the fitted curve at half-maximal effect
# [3] = qHTS assay to identify small molecule antagonists of the estrogen receptor alpha (ER-alpha) signaling pathway using the BG1 cell line in the presence of 0.1 nM 17-beta-estradiol - cell viability counter screen (AID 1259241); also: nearly all actives have a fitted effect of over 40% in size; also: potency is read from the fitted curve at half-maximal effect; as to activity change, negative = cytotoxicity: % is scaled to controls: 0 for no effect and ±100 for the full control effect
# In short: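 The cell line endogenously expresses full-length ER-alpha and carries four EREs driving luciferase. Cells are cultured 5 days hormone-free, treated 22 hr with compounds and 0.1 nM estradiol, then viability is read by fluorescence.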
# [4] = qHTS assay to identify small molecule antagonists of the estrogen related receptor (ERR) signaling pathway from Tox21 library (AID 1224848); also: nearly all actives have a fitted effect of over 50% in size; also: potency is read from the fitted curve at half-maximal effect
# In short: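 ERR reporter cell line (from NTP) seeded 2,000 cells/well, rested 6 h at 37 C/5% CO2, then pin-dosed with compounds in DMSO. After 18 h at 37 C, ONE-Glo added; luminescence read after 30 min at room temperature.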
# [5] = qHTS RealTime-Glo MT Cell Viability Assay in HEK293 cells - 0 hour (AID 1224880); also: nearly all actives have a fitted effect of over 45% in size; also: potency is read from the fitted curve at half-maximal effect
# In short: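 600 cells/well were plated with the nonlytic NanoLuc/prosubstrate reagent, pre-incubated 5 h, then given 23 nL of compound in DMSO. Incubation at 37 C for 40 h, with luminescence from viable-cell-reduced substrate read repeatedly from 0 h.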
# [6] = target: Progesterone receptor (Homo sapiens) (UniProt P06401); test: qHTS assay to identify small molecule agonists of the progesterone receptor (PR) signaling pathway (AID 1346784; calls by dose curve; also: nearly all actives have a fitted effect of over 30% in size; also: potency is read from the fitted curve at half-maximal effect); settings: PR-UAS-bla HEK293T, beta-lactamase FRET ratio, 16 h; activation: at 92.4 µM (top of the series) unless noted
# In short: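 Agonist mode, quantitative HTS format in a HEK 293T line expressing a UAS-controlled beta-lactamase reporter; 16 hr compound exposure at 37C in 2% charcoal-stripped FBS, then LiveBLAzer B/G FRET fluorescence.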
# [7] = qHTS assay to identify small molecule agonists of the peroxisome proliferator-activated receptor delta (PPARd) signaling pathway - cell viability counter screen (AID 743211); settings: PPARd-bla HEK293H viability, CellTiter-Glo luminescence, 17 h; activity change, negative = cytotoxicity: at 62.6 µM (top of the series) unless noted; also: nearly all actives have a fitted effect of over 55% in size; also: potency is read from the fitted curve at half-maximal effect; as to activity change, negative = cytotoxicity: % is scaled to controls: 0 for no effect and ±100 for the full control effect
# In short: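 Viability of GeneBLAzer PPARd UAS-bla HEK293H cells was assessed after 17 h compound incubation at 37C, using CellTiter-Glo reagent added after the reporter read and luminescence recorded 30 min later.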
# [8] = qHTS assay to identify small molecule antagonists of the thyroid receptor (TR) signaling pathway (AID 743065); also: nearly all actives have a fitted effect of over 55% in size; also: potency is read from the fitted curve at half-maximal effect
# In short: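 GH3.TRE-Luc rat pituitary cells (two TREs driving luciferase) were dosed with compound, then stimulated with 1 nM T3 (final) for 23.5 h at 37 C. ONE-Glo luminescence was the read-out, with CellTiter-Fluor fluorescence as the cytotoxicity counter-screen.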
# [9] = target: Aryl hydrocarbon receptor (Homo sapiens) (UniProt P35869); test: qHTS assay to identify small molecule that activate the aryl hydrocarbon receptor (AhR) signaling pathway (AID 743085); also: nearly all actives have a fitted effect of over 15% in size; also: potency is read from the fitted curve at half-maximal effect;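 as to activation: HG2L7.5c1 human HepG2 liver cells with stably integrated DRE-driven firefly reporter; % is scaled to controls: 0 for no effect and ±100 for the full control effect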
# In short: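 Steps: seed HepG2-AhR-luc cells; allow 5 h at 37C; pin-transfer test compound or vehicle; incubate 24 h at 37C; add viability dye (30 min, 37C) and read fluorescence; add luciferase substrate (30 min, RT) and read luminescence.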
# [10] = qHTS assay to identify small molecule agonists of the farnesoid-X-receptor (FXR) signaling pathway - cell viability counter screen (AID 743218); settings: FXR-bla HEK293T viability, CellTiter-Glo luminescence, 16 h; viability change, negative = cytotoxic: at 62.6 µM (top of the series) unless noted; also: potency is read from the fitted curve at half-maximal effect; nearly all actives have a fitted effect of over 45% in size
# In short: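 FXR-UAS-bla HEK 293T cells exposed to compounds for 16 h at 37C. Cytotoxicity read in the same wells by CellTiter-Glo luminescence after 30 min at room temperature, following the beta-lactamase FRET read.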
# [11] = A CellTox Green Cytotoxicity Assay to monitor cytotoxicity in HEK293 cells - 32 hour (AID 1224881); also: nearly all actives have a fitted effect of over 40% in size; also: potency is read from the fitted curve at half-maximal effect
# In short: (§1)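 HEK293 cells, 600/well, were preincubated 5 hours and then exposed to compounds at 37 C for up to 40 hours. A cell-impermeant cyanine dye staining dead-cell DNA was read by fluorescence at 0, 8, 16, 24, 32 and 40 h time points.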
# [12] = qHTS assay for small molecule activators of the heat shock response signaling pathway (AID 743210; active = well fitted activation curve with a large enough effect in the signal ratio in the repeat runs, with a control signal flat, not every such curve was filed as active; inconclusive = weak or mixed curves; the % refers to the signal ratio; also: potency is read from the fitted curve at half-maximal effect); settings: HeLa HSE-bla reporter, beta-lactamase ratio, 5 h; activation: at 62.6 µM (top of the series) unless noted
# In short: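 HSE-bla HeLa cells (beta-lactamase reporter under heat shock response elements), plated overnight, then exposed to compounds 5 h at 37 C; LiveBLAzer B/G FRET substrate added, 2.5 h at room temperature, fluorescence intensity read.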
# [13] = qHTS assay for small molecule disruptors of the mitochondrial membrane potential - cell viability (AID 720634; calls by dose curve; also: nearly all actives have a fitted effect of over 20% in size; also: potency is read from the fitted curve at half-maximal effect)
# In short: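 HepG2 cells, 2,000 per well, attached overnight, then treated 1 hr at 37 C, 5% CO2. Viability read as ATP by CellTiter-Glo luminescence after 30 min at room temperature. Read in the same wells as the m-MPI membrane-potential dye assay.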
# [14] = A CellTox Green Cytotoxicity Assay to monitor cytotoxicity in HEK293 cells - 8 hour (AID 1224884); also: nearly all actives have a fitted effect of over 35% in size; also: potency is read from the fitted curve at half-maximal effect
# In short: as §1
# [15] = target: Thyrotropin receptor (Homo sapiens) (UniProt P16473); test: qHTS assay to identify small molecule agonists of the thyroid stimulating hormone receptor (TSHR) signaling pathway (AID 1224843; calls by dose curve; also: % is scaled to controls: 0 for no effect and ±100 for the full control effect; nearly all actives have a fitted effect of over 45% in size); settings: TSHR-HEK293 cells, cAMP HTRF, agonist mode, 30 min; activation: at 92.4 µM (top of the series) unless noted
# In short: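 TSHR-HEK293 cells in agonist mode, 30 min room-temperature step, then cAMP measured by competitive HTRF (cAMP-d2 with anti-cAMP cryptate) after 1 h at room temperature. Tested at 15 concentrations in triplicate.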
# [16] = A CellTox Green Cytotoxicity Assay to monitor cytotoxicity in HepG2 cells - 40 hour (AID 1224879); also: potency is read from the fitted curve at half-maximal effect; nearly all actives have a fitted effect of over 40% in size
# In short: (§2)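 HepG2 cells, 600/well, preincubated 5 h with CellTox Green dye, then exposed to Tox21 compounds in DMSO at 37 C for up to 40 h. Dead-cell DNA fluorescence read at the indicated time point.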
# [17] = A CellTox Green Cytotoxicity Assay to monitor cytotoxicity in HepG2 cells - 32 hour (AID 1224883); also: nearly all actives have a fitted effect of over 50% in size; also: potency is read from the fitted curve at half-maximal effect
# In short: as §2
# [18] = Human pregnane X receptor (PXR) small molecule agonists, qHTS cell viability counter screen (AID 1346977); also: % is scaled to controls: 0 for no effect and ±100 for the full control effect; nearly all actives have a fitted effect of over 50% in size
# In short: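 Measures live-cell protease fluorescence (CellTiter-Fluor) in PXR-Luc HepG2 cells treated 24hr with compounds at 37C. Cells had 5hr to attach before pin transfer of DMSO solutions.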
# [19] = A CellTox Green Cytotoxicity Assay to monitor cytotoxicity in HEK293 cells - 16 hour (AID 1224888); also: nearly all actives have a fitted effect of over 35% in size; also: potency is read from the fitted curve at half-maximal effect
# In short: as §1
# [20] = target: Estrogen receptor (Homo sapiens) (UniProt P03372); test: qHTS assay to identify small molecule antagonists of the estrogen receptor alpha (ER-alpha) signaling pathway using the BG1 cell line in the presence of 0.1 nM 17-beta-estradiol (AID 1259244); also: % is scaled to controls: 0 for no effect and ±100 for the full control effect; nearly all actives have a fitted effect of over 50% in size
# In short: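 VM7Luc4E2 cells (endogenous full-length ER-alpha, 4×ERE-luciferase), kept 5 days in phenol red-free, charcoal-stripped FBS medium; 4,000 cells/well. Compounds added with 0.1 nM (final) 17beta-estradiol, 22 hr at 37C; luminescence read with ONE-Glo after 30 min.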
# Tags tell the direction and shape of the fitted curve or compound fluorescence and quenching.
# Chain of UniProt P06401 (P06401 whole entry, looked up): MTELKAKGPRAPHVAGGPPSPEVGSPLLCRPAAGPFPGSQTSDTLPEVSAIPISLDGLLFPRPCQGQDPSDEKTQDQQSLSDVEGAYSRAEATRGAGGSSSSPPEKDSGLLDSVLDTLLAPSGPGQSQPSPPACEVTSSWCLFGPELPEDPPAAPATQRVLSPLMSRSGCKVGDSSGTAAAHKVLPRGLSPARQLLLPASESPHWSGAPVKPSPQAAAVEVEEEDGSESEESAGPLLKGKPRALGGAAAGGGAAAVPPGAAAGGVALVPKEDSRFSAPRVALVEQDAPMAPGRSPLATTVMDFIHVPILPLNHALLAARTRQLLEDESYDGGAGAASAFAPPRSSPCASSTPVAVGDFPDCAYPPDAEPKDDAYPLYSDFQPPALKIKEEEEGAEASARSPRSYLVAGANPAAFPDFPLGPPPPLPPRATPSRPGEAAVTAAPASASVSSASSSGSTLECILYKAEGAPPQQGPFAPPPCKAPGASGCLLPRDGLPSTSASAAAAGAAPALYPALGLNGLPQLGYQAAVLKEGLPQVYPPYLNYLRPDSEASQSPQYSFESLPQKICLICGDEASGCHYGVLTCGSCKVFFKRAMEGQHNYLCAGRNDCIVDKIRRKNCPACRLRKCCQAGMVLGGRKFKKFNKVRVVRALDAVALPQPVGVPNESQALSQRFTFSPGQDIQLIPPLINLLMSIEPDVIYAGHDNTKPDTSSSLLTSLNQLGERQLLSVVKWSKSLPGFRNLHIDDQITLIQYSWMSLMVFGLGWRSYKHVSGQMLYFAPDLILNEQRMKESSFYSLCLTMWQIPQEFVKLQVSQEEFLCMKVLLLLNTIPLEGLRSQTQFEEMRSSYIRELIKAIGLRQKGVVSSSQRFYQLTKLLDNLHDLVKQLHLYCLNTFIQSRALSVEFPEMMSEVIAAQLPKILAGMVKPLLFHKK
# Chain of UniProt P16473 (P16473 whole entry, looked up): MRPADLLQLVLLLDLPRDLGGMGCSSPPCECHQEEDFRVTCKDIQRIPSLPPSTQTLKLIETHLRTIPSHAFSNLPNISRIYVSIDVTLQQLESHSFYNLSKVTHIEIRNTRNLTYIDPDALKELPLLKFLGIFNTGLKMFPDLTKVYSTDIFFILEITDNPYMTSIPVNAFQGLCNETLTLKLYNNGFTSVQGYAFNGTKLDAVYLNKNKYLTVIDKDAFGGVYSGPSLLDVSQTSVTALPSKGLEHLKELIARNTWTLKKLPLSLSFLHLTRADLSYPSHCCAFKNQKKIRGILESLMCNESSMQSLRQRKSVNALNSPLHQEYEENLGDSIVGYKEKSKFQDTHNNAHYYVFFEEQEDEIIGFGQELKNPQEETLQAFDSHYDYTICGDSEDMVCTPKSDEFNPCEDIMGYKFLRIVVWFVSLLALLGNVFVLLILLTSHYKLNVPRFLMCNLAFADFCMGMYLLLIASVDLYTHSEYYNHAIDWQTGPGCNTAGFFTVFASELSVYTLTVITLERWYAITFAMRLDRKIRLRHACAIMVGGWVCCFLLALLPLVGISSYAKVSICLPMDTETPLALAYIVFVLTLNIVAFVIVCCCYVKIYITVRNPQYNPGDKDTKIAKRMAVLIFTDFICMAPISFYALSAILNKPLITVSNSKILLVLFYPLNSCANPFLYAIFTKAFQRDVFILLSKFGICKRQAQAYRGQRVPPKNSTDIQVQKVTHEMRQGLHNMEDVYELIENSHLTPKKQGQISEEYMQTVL
# Chain of UniProt P35869 (P35869 whole entry, looked up): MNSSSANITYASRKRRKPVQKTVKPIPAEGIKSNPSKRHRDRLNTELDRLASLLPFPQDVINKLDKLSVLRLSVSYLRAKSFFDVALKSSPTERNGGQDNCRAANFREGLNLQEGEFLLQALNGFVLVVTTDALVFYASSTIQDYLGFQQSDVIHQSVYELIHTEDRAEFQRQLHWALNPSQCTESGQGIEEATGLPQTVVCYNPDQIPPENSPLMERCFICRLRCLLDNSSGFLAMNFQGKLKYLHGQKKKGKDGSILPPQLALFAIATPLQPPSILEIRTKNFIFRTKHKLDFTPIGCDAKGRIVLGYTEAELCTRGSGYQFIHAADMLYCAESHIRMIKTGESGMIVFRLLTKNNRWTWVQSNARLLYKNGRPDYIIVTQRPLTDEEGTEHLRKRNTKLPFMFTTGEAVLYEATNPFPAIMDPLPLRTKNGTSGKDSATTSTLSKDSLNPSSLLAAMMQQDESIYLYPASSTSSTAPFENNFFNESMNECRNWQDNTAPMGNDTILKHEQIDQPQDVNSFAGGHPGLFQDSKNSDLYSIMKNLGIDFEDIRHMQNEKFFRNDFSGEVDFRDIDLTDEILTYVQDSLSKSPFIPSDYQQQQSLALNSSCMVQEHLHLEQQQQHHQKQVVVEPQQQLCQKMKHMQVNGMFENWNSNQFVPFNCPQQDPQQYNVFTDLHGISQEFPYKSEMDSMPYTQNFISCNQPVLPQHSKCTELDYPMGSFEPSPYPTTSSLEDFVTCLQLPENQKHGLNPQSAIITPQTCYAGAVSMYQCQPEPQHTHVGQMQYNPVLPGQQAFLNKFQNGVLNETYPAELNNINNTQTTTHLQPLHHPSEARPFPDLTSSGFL
# Chain of UniProt P03372 (P03372 whole entry, looked up): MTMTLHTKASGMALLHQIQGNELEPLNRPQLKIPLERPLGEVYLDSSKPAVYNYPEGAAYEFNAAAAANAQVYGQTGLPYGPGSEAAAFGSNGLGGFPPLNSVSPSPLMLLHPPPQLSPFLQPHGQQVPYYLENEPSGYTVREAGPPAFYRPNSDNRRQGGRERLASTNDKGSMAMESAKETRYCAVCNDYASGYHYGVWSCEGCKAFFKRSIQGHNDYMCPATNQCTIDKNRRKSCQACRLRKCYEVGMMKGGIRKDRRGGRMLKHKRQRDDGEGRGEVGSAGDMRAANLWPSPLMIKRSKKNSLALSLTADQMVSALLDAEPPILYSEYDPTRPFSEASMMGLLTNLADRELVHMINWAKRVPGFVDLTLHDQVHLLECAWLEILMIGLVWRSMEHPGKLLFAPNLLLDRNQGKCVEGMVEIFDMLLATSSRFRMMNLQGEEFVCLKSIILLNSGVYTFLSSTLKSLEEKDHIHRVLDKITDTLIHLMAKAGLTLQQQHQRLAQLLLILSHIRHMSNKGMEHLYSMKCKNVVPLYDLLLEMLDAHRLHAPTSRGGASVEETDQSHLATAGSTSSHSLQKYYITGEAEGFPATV
structure (smiles),measurement,setting,value
Cc1ncc([C@@H](CCCCCCc2ccc3c(n2)NCCC3)CC(=O)O)cn1,Potency,[1],inactive
O=C(O)CCNC(=O)c1ccc(N=Nc2ccc(O)c(C(=O)O)c2)cc1,Potency,[2],"inconclusive: 26.6 µM [cytotoxic, partial curve, poor fit]"
same,Potency,[3],"inconclusive: 23.7 µM [cytotoxic, partial curve, poor fit]"
CC(=O)[C@@]1(O)CC[C@H]2[C@@H]3C[C@H](C)C4=CC(=O)C=C[C@]4(C)[C@@]3(F)[C@@H](O)C[C@@]21C,Potency,[4],"inconclusive: 24.3 µM [inhibitor, partial curve] and inconclusive: 15 µM [inhibitor, partial curve, poor fit]"
same,Potency,[5],active: 5.49 µM and active: 3.01 µM
same,Potency,[6],active: 61.1 nM and active: 168 nM
CCn1c(=O)c2c(nc(/C=C/c3ccc(OC)c(OC)c3)n2C)n(CC)c1=O,Potency,[7],inactive
CC1(C)Cc2cccc(N)c2O1,Potency,[3],inactive
CCC/C=C(\C=O)CC,Potency,[8],inactive
N[C@@H](CCC(=O)N[C@@H](CS)C(=O)NCC(=O)O)C(=O)O,Potency,[9],inactive
O=S(=O)(O)c1ccccc1,Potency,[10],"inconclusive: 1.73 µM [rising, full curve]"
same,Potency,[11],inactive
same,Potency,[6],inactive
Cc1cc(=O)[nH]c(=S)[nH]1,Potency,[12],"inconclusive: 37.6 µM [activator, partial curve, poor fit]"
same,Potency,[7],inactive
O=C(CCCN1CCN(c2ccccn2)CC1)c1ccc(F)cc1,Potency,[13],inactive
CCOC(=O)[C@H](CCc1ccccc1)N[C@@H](C)C(=O)N1[C@H](C(=O)O)C[C@@H]2CCC[C@@H]21,Potency,[13],inactive
same,Potency,[14],inactive
O=C(CN1CCN(Cc2ccc3c(c2)OCO3)CC1)N1c2ccccc2Sc2ccccc21,Potency,[9],"inconclusive: 15 µM [activator, partial curve]"
same,Potency,[15],inactive
same,Potency,[16],"inconclusive: 26.8 µM [activator, single point]"
CCN1CCC[C@H]1CNC(=O)c1cc(S(N)(=O)=O)ccc1OC,Potency,[2],inactive
same,Potency,[17],inactive
same,Potency,[18],inactive
SCCSCCS,Potency,[14],inactive
same,Potency,[3],inactive
O=C(O)CSCC(=O)NC1CCSC1=O (centres undefined),Potency,[12],inactive
CC1(C)[C@H](C(=O)OCc2cccc(Oc3ccccc3)c2)[C@@H]1C=C(Cl)Cl,Potency,[6],inactive
CCOc1cc([N+](=O)[O-])c(OCC)cc1N1CCOCC1,Potency,[8],"inconclusive: 12.2 µM [inhibitor, partial curve, poor fit]"
same,Potency,[5],inactive
same,Potency,[3],"inconclusive: 54.5 µM [cytotoxic, partial curve, poor fit]"
c1coc(Cn2cccc2)c1,activation,[12],inconclusive: 3.83%
CC(c1cc2ccccc2s1)N(O)C(N)=O (centres undefined),Potency,[13],"inconclusive: 13.3 µM [cytotoxic, partial curve, poor fit] and active: 27.3 µM"
same,Potency,[1],inactive
same,Potency,[9],"inconclusive: 26.6 µM [activator, partial curve, poor fit] and inconclusive: 68.6 µM [activator, single point]"
same,Potency,[16],"inconclusive: 10.7 µM [activator, single point]"
same,Potency,[11],"inconclusive: 21.9 µM [activator, single point]"
same,Potency,[19],"inconclusive: 21.9 µM [activator, single point]"
CCCCC(CC)C(=O)OC(C)C (centres undefined),Potency,[18],inactive
C[C@@H](O)C(=O)O,Potency,[6],"inconclusive: 38.1 µM [rising, single point]"
O=c1[nH]c(=O)n([C@H]2C[C@H](O)[C@@H](CO)O2)cc1Br,Potency,[1],"inconclusive: 13.3 µM [rising, partial curve] and inconclusive: 39.2 µM [rising, partial curve]"
same,Potency,[6],"inconclusive: 29.8 µM [rising, single point]"
CC(=O)c1cccnc1,Potency,[9],"inconclusive: 77 µM [activator, partial curve, poor fit]"
CC(C(=O)O)c1ccc2c(c1)CC(=O)c1ccccc1S2 (centres undefined),Potency,[8],"inconclusive: 29.8 µM [inhibitor, partial curve, poor fit]"
same,Potency,[2],"inconclusive: 18.8 µM [cytotoxic, single point]"
same,Potency,[5],inactive
same,Potency,[11],inactive
CCCCOC(=O)C(C)OC(=O)CCC (centres undefined),Potency,[4],inactive
C[N+](C)(C)CCOC(=O)CCC(=O)OCC[N+](C)(C)C,Potency,[7],"inconclusive: 11.9 µM [rising, single point]"
same,Potency,[20],inactive
CCCC(=O)O[C@]1(C(=O)CCl)[C@@H](C)C[C@H]2[C@@H]3CCC4=CC(=O)C=C[C@]4(C)[C@@]3(F)C(=O)C[C@@]21C,Potency,[1],"inconclusive: 1.9 nM [rising, full curve, poor fit]"
same,Potency,[2],"inconclusive: 0.0596 µM [rising, full curve, poor fit]"
same,Potency,[9],"inconclusive: 33.5 µM [activator, partial curve]"
C[C@H]1C[C@@H](O)CC(C)(C)C1,Potency,[15],inactive
same,Potency,[11],"inconclusive: 21.9 µM [activator, single point]"
same,Potency,[14],"inconclusive: 21.9 µM [activator, single point]"
same,Potency,[19],"inconclusive: 21.9 µM [activator, single point]"
same,Potency,[6],inactive
CCCCCCCCCOCC1CO1 (centres undefined),Potency,[10],"inconclusive: 80.7 µM [rising, partial curve, poor fit]"
CNCCO,Potency,[10],"inconclusive: 0.0436 µM [rising, partial curve, poor fit]"
C[C@H](CCC(=O)NCC(=O)O)[C@H]1CC[C@H]2[C@@H]3[C@H](O)C[C@@H]4C[C@H](O)CC[C@]4(C)[C@H]3C[C@H](O)[C@]12C,Potency,[17],inactive
CCN(CC)CCNC(=O)COc1ccc(Cl)cc1,Potency,[13],inactive
same,Potency,[17],"inconclusive: 6.74 µM [activator, partial curve, poor fit]"
O=C(O)C(S)C(S)C(=O)O (centres undefined),Potency,[12],"inconclusive: 33.5 µM [activator, single point]"
same,Potency,[15],inactive
CO[Si](CCCNCCC[Si](OC)(OC)OC)(OC)OC,Potency,[8],inactive
Oc1ccccc1Cc1ccccc1O,Potency,[13],inconclusive: 27.3 µM [cytotoxic]
same,Potency,[8],"inconclusive: 61.1 µM [inhibitor, single point]"
same,Potency,[7],"inconclusive: 43.6 µM [cytotoxic, single point]"
same,Potency,[16],"inconclusive: 54.9 µM [activator, single point]"
same,Potency,[6],"inconclusive: 68.6 µM [cytotoxic, single point]"
CC(C)(C)c1ccc(C=O)cc1,Potency,[13],inactive
same,Potency,[11],"inconclusive: 43.1 µM [activator, partial curve, poor fit]"
same,Potency,[19],inactive
